The list shows a part of the results. At the low end of the ranking the order means little.
Each sequence was assayed against GST-SBP-SLBP (stem-loop binding protein) (UniProt Q14493) (assay: targeted RNA Bind-n-Seq). Conditions: RBNS binding buffer: 25 mM Tris pH 7.5, 150 mM KCl, 3 mM MgCl2, 0.1% Tween, 0.5 mg/mL BSA, 1 mM DTT; 27 nM protein, 750 pM RNA pool; temperature not stated; high values mean tight binding.
With “GGUCACGUCUCAAUCAACUCAUCUCCAGGAGUUUACUCCUGCAAUCUCAACAGCUCGCAGUCAAG” the binding signal (log2 fold change) was 0.127. Sequence “GGUCACGUCUCAAUCAACUCAUCCUCAGGAGUUUUCUCCUGUUAAUUCAACAGCUCGCAGUCAAG” has a binding signal (log2 fold change) of 0.0626. “GGUCACGUCUCAAUCAACUCAACUUCCAGGGAAACCCCUGGCAAAUUCAACAGCUCGCAGUCAAG” was tested, and the binding signal (log2 fold change) was -0.114. “GGUCACGUCUCAAUCAACUCCCAAGAGGGGGGGAAAACCCCUUUACCCUCCUACUCAACAGCUCGCAGUCAAG” was tested, and the binding signal (log2 fold change) was 0.169. “GGUCACGUCUCAAUCAACUCAACGCCAGGAGUUUUCUCCUGUAUACUCAACAGCUCGCAGUCAAG” showed a binding signal (log2 fold change) of 0.147. In the case of “GGUCACGUCUCAAUCAACUCUAUCUCCAGGGAAAGCCCUGGUUUUUUCAACAGCUCGCAGUCAAG”, the binding signal (log2 fold change) is reported as -0.169. Sequence “GGUCACGUCUCAAUCAACUCAUCGUCCAGGGAAAUCCCUGGCUUAUUCAACAGCUCGCAGUCAAG” has a binding signal (log2 fold change) of -0.00186. With “GGUCACGUCUCAAUCAACUCAUUCGAGGGGGGGAAAACCCCUUUGCCCUCACUAUCAACAGCUCGCAGUCAAG” the binding signal (log2 fold change) was -0.0184. Sequence “GGUCACGUCUCAAUCAACUCUAUCUCCAGGGAAAACCCUGGCUUAUUCAACAGCUCGCAGUCAAG” has a binding signal (log2 fold change) of -0.0838. Work on “GGUCACGUCUCAAUCAACUCAUCUUCCAGGGAAACCCCUGGCAAAUUCAACAGCUCGCAGUCAAG” yielded a binding signal (log2 fold change) of 0.215. “GGUCACGUCUCAAUCAACUCCCUCGAGGGGGGGAAAACCCCUUUACCCUCAAUCUCAACAGCUCGCAGUCAAG” gave a binding signal (log2 fold change) of -0.42. “GGUCACGUCUCAAUCAACUCAUCCUCAGGAGUUUACUCCUGCUUACUCAACAGCUCGCAGUCAAG” showed a binding signal (log2 fold change) of 0.315. With “GGUCACGUCUCAAUCAACUCAUACGAGGGGGGGAAAACCCCUUUACCCUCCACAUCAACAGCUCGCAGUCAAG” the binding signal (log2 fold change) was -0.191. Sequence “GGUCACGUCUCAAUCAACUCUAGUCCCAGGGAAAGCCCUGGCAUAUUCAACAGCUCGCAGUCAAG” has a binding signal (log2 fold change) of -0.244. With “GGUCACGUCUCAAUCAACUCAUCGCCCAGGGAAAUCCCUGGUAAUCUCAACAGCUCGCAGUCAAG” the binding signal (log2 fold change) was -0.438. For “GGUCACGUCUCAAUCAACUCAGUCCCCAGGGAAAGCCCUGGUUUUUUCAACAGCUCGCAGUCAAG”, the binding signal (log2 fold change) was 0.1. “GGUCACGUCUCAAUCAACUCAAGUCCAGGAGUUUACUCCUGCAAUGUCAACAGCUCGCAGUCAAG” showed a binding signal (log2 fold change) of -0.0265. Sequence “GGUCACGUCUCAAUCAACUCUAUCGAGGGGGGGAAAACCCCUUUACCCUCAUCUUCAACAGCUCGCAGUCAAG” has a binding signal (log2 fold change) of 0.159. Work on “GGUCACGUCUCAAUCAACUCAUUUUCCAGGGAAAACCCUGGCAUACUCAACAGCUCGCAGUCAAG” yielded a binding signal (log2 fold change) of 0.135. In the case of “GGUCACGUCUCAAUCAACUCUAUCCCCAGGGAAAACCCUGGCAUACUCAACAGCUCGCAGUCAAG”, the binding signal (log2 fold change) is reported as -0.182. In the case of “GGUCACGUCUCAAUCAACUCAGUUCCAGGAGUUUACUCCUGCAUUUUCAACAGCUCGCAGUCAAG”, the binding signal (log2 fold change) is reported as 0.0545. “GGUCACGUCUCAAUCAACUCUUCGUCAGGAGUUUUCUCCUGUAAACUCAACAGCUCGCAGUCAAG” was tested, and the binding signal (log2 fold change) was -0.0936. Sequence “GGUCACGUCUCAAUCAACUCUCUCGAGGGGGGGAAAACCCCUUUACCCUCAAUGUCAACAGCUCGCAGUCAAG” has a binding signal (log2 fold change) of -0.0916. In the case of “GGUCACGUCUCAAUCAACUCAUCCCCCAGGGAAACCCCUGGCUAAUUCAACAGCUCGCAGUCAAG”, the binding signal (log2 fold change) is reported as -0.159. “GGUCACGUCUCAAUCAACUCAACUUCAGGAGUUUUCUCCUGCAAUUUCAACAGCUCGCAGUCAAG” gave a binding signal (log2 fold change) of 0.0686. “GGUCACGUCUCAAUCAACUCAUCUCCCAGGGAAAUCCCUGGCAUUCUCAACAGCUCGCAGUCAAG” gave a binding signal (log2 fold change) of 0.0996. With “GGUCACGUCUCAAUCAACUCUACAGAGGGGGGGAAAACCCCUUUACCCUCAACAUCAACAGCUCGCAGUCAAG” the binding signal (log2 fold change) was 0.238. Work on “GGUCACGUCUCAAUCAACUCAUCCCCAGGAGUUUACUCCUGUAUACUCAACAGCUCGCAGUCAAG” yielded a binding signal (log2 fold change) of 0.0474. “GGUCACGUCUCAAUCAACUCAAUCCCAGGAGUUUUCUCCUGUAAAGUCAACAGCUCGCAGUCAAG” was tested, and the binding signal (log2 fold change) was 0.317. For “GGUCACGUCUCAAUCAACUCCCUCGAGGGGGGGAAAACCCCUUUACCCUCAUACUCAACAGCUCGCAGUCAAG”, the binding signal (log2 fold change) was -0.197. “GGUCACGUCUCAAUCAACUCUUUCCCAGGAGUUUUCUCCUGUUUUGUCAACAGCUCGCAGUCAAG” gave a binding signal (log2 fold change) of 0.0854. In the case of “GGUCACGUCUCAAUCAACUCUACUCCCAGGGAAAUCCCUGGCUAUUUCAACAGCUCGCAGUCAAG”, the binding signal (log2 fold change) is reported as -0.355. Work on “GGUCACGUCUCAAUCAACUCAUCCCCAGGAGUUUGCUCCUGCAUUUUCAACAGCUCGCAGUCAAG” yielded a binding signal (log2 fold change) of 0.206. “GGUCACGUCUCAAUCAACUCUUCUCCCAGGGAAAGCCCUGGUAAUGUCAACAGCUCGCAGUCAAG” showed a binding signal (log2 fold change) of 0.107. “GGUCACGUCUCAAUCAACUCAUUCUCAGGAGUUUACUCCUGUUUUUUCAACAGCUCGCAGUCAAG” gave a binding signal (log2 fold change) of -0.182. In the case of “GGUCACGUCUCAAUCAACUCUACUCCCAGGGAAAUCCCUGGCAAUGUCAACAGCUCGCAGUCAAG”, the binding signal (log2 fold change) is reported as 0.107. “GGUCACGUCUCAAUCAACUCUUUUUCCAGGGAAACCCCUGGCUUUCUCAACAGCUCGCAGUCAAG” was tested, and the binding signal (log2 fold change) was -0.118.

Reference: paper PMC5892938
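Further: DESeq read counts versus GST-SBP nonspecific binding control pulldown.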
